Test results reported in article PMC11320581 (ACS Infectious Diseases, 2024).

Key:
[1] = target: T1, N. gonorrhoeae topoisomerase IV (Neisseria gonorrhoeae, UniProt P48374+Q5F754); type: biochemical
[2] = target: T1, N. gonorrhoeae topoisomerase IV; experiment: Topoisomerase IV-catalyzed DNA decatenation; conditions: 20 min, read-out: DNA decatenation activity of topoisomerase IV remaining

Structure (SMILES)	double-stranded and total DNA strand breaks, gyrase compared with topoisomerase IV [1]	remaining activity at 200 µM [2] [%]
CC1CN2c3c(cc4c(OCC5CCC(=O)N5)noc4c3F)CC3(C(=O)NC(=O)NC3=O)C2C(C)O1 (centres unmarked) [H3D-005722]	comparable levels	
C[C@@H]1CN2c3c(cc4c(N5C(=O)OC[C@@H]5C)noc4c3F)CC3(C(=O)NC(=O)NC3=O)[C@H]2[C@H](C)O1 [zoliflodacin, Zoliflodacin]		≥ 50
